This note sets out measurements from paper PMC10192561, “Studies on the inhibitory effect of isavuconazole on flumatinib metabolism in vitro and in vivo” (Frontiers in Pharmacology, 2023).

Substrate in this data set: Cc1ncc(NC(=O)c2ccc(CN3CCN(C)CC3)c(C(F)(F)F)c2)cc1Nc1nccc(-c2cccnc2)n1
As to the kind of experiment: cells, lysate or membranes named. The note with it: other: flumatinib as substrate, rCYP3A4; 37.0 °C.

B1: recombinant human CYP3A4 (rCYP3A4) (Homo sapiens) (protein)
chain: MALIPDLAMETWLLLAVSLVLLYLYGTHSHGLFKKLGIPGPTPLPFLGNILSYHKGFCMFDMECHKKYGKVWGFYDGQQPVLAITDPDMIKTVLVKECYSVFTNRRPFGPVGFMKSAISIAEDEEWKRLRSLLSPTFTSGKLKEMVPIIAQYGDVLVRNLRREAETGKPVTLKDVFGAYSMDVITSTSFGVNIDSLNNPQDPFVENTKKLLRFDFLDPFFLSITVFPFLIPILEVLNICVFPREVTNFLRKSVKRMKESRLEDTQKHRVDFLQLMIDSQNSKETESHKALSDLELVAQSIIFIFAGYETTSSVLSFIMYELATHPDVQQKLQEEIDAVLPNKAPPTYDTVLQMEYLDMVVNETLRLFPIAMRLERVCKKDVEINGMFIPKGVVVMIPSYALHRDPKYWTEPEKFLPERFSKKNKDNIDPYIYTPFGSGPRNCIGMRFALMNMKLALIRVLQNFSFKPCKETQIPLKLSLGGLLQPEKPVVLKVESRDGTVSGA
Usually Km stands for the concentration of substrate that gives half-maximal velocity. Regarding B1, the Km turned out to be 3.06 µM.
